Measured values published in PubChem BioAssay (NCI).
“And” between values parts separate entries of the source, which are not always exact repeats. Equal entries are not always repeated.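 All cell lines were grown in 96-well plates and treated with compound for 48 hours. Here, GI50 denotes the concentration required for 50% inhibition of growth. Definition used: TGI = concentration required for complete inhibition of growth.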

test system: NCI-H322M lung; assay: growth of human tumour cells (NCI), 48 h

SMILES	TGI	GI50 [µM]
Cc1cc2nc(NS(=O)(=O)c3cc(C)c(Cl)cc3S)[nH]c2cc1C	> 100 µM	
CC[C@@]1(O)C(=O)OCc2c1cc1n(c2=O)Cc2c-1nc1ccccc1c2/C=N\NC(=O)C(N)=O	> 89.8 µM	
CN1CCN(c2ccc3nc(-c4ccc5nc(-c6ccc(N(C)CCCl)cc6)[nH]c5c4)[nH]c3c2)CC1	2.76 µM	
COC(=O)NN=C1C(C)(C)C(=NNC(=O)OC)C1(C)C	> 100 µM	
NC(=O)N/N=C1/CCCC/C1=C\c1ccccc1	> 100 µM	
Cn1nc2ccc3nccc(NCCNCCCl)c3c2n1	> 100 µM	
COc1cc(OC)c(NC2=NCCO2)cc1Cl	> 100 µM	
CN(c1ccccc1Cl)S(=O)(=O)c1ccccc1	> 100 µM	
Nc1nc(SCc2ccccc2[N+](=O)[O-])c2[nH]cnc2n1	> 100 µM	
COc1ccc(CCN2CCOCC2)cc1	> 100 µM	
CCCCCCCCC[C@@H]1C[C@@H]2CCC3C(C(=O)OCCCCNC(=O)OCc4ccccc4)=C(C)NC(=N1)N32 (stereo partly specified)	28.7 µM	
O=C1/C(=C\c2cn(CC(O)CN3CCCCC3)c3ccccc23)c2ccccc2N1c1c(Cl)cccc1Cl (stereo unspecified)	3.34 µM	1.63
O=C(Nc1ccccc1)OCc1nc2c([nH]1)C(=O)C=CC2=O	26.7 µM	
O=C1C(Cl)=C(Nc2ccc3c(c2NC2=C(Cl)C(=O)c4ccccc4C2=O)C(=O)c2ccccc2C3=O)C(=O)c2ccccc21	7.82 µM	2.41
O=C(O)C1Cc2ccccc2OC1=O (stereo unspecified)	> 100 µM	
N/C(=N\N=C/c1cc(Cl)cc(Cl)c1O)NO	60.3 µM	
CCCCCC/C=C\CCCCCCCCCc1c(O)c(OC)cc(O)c1CN(C)C	30.3 µM	
N#CCCCCC12C3C(=O)N(c4ccccc4)C(=O)C3ON1O[C@@H]1C(=O)N(c3ccccc3)C(=O)[C@@H]12 (stereo partly specified)	> 100 µM	
CC(=O)O[C@@H]1CC2[C@@H](CCC3Cc4nc5c(nc4C[C@@]32C)CC2CC[C@@H]3C(CC[C@@]4(C)C3CC[C@@H]4C(C)CCCC(C)C)[C@@]2(C)C5)C2C[C@@H]3OC4(CCC(C)CO4)C(C)[C@@H]3[C@]21C (stereo partly specified)	> 100 µM	
C[n+]1ccc2[nH]c3ccccc3c2c1	> 100 µM	
S=C1NC2=C(COC/C2=C\c2ccccc2Cl)C(c2ccccc2Cl)N1 (stereo unspecified)	> 100 µM	
CCCCCCCCCCCCOC(=S)NC	61.9 µM	
O=S(=O)(Nc1nc(-c2cc(O)c(O)c(O)c2)cs1)c1ccc(Cl)cc1Cl	31.7 µM	
COC(=O)C1=C2Nc3ccccc3C23CCN2C(O)C4(CC5CC67CCOC6CCN6CCC8(c9cccc(OC)c9N(C4)C58O)C67)C4OCCC4(C1)C23 (stereo unspecified)	> 100 µM	

SMILES	TGI	GI50 [µM]
COc1cc(C2c3cc4c(cc3OC(N3CCOCC3)C2C)OCO4)cc(OC)c1OC (stereo unspecified)	89.6 µM	
CC(Nc1cc(=O)n(C)c(=O)[nH]1)c1ccccc1 (stereo unspecified)	> 100 µM	
O=C(Cc1ccccc1)NN1C(=O)C(Cl)C1c1ccccc1 (stereo unspecified)	> 100 µM	
CCC(C)N1CN(c2ccccc2)C2(CCN(CCCC(=O)c3ccc(F)cc3)CC2)C1=O (stereo unspecified)	18 µM	
CS(=O)(=O)OC1CCN(C2(c3cccc(O)c3)CCCCC2)CC1	> 100 µM	
CC[S+](C)c1ccc(-c2c3nc(c(-c4ccc([S+](C)CC)cc4)c4ccc([nH]4)c(-c4ccc([S+](C)CC)cc4)c4nc(c(-c5ccc([S+](C)CC)cc5)c5ccc2[nH]5)C=C4)C=C3)cc1 (stereo unspecified)	79.6 µM	
COc1ccc2c(c1)-c1c(c3ccccc3n1CCN1CCOCC1)CC2	> 100 µM	
COc1cccc2cc(N(C)c3nc(C)nc4ccsc34)ccc12	23.6 µM	< 0.01
CCOC(=O)CC(=Nc1cc(C)on1)N(CC)CC	> 100 µM	
C=CC1=C(C)C(Cc2[nH]c(/C=c3\[nH]/c(=C/C4=NC(=O)C(C)/C4=C\C)c(C)c3CCC(=O)O)c(CCC(=O)OC)c2C)NC1=O (stereo unspecified)	89 µM	40.5
O=C(Nc1ccc(Cl)cc1)c1cc(S(=O)(=O)NC2=NC(c3ccccc3)c3cc(Cl)ccc3N2)c(SSc2cc(Cl)c(C(=O)Nc3ccc(Cl)cc3)cc2S(=O)(=O)NC2=NC(c3ccccc3)c3cc(Cl)ccc3N2)cc1Cl (stereo unspecified)	> 100 µM	
CC(C)(C)[Si](Nc1ccccc1)(c1ccccc1)c1ccccc1	28.6 µM	
O=C1O[C@H](COC(=O)c2ccccc2)[C@@H](OC(=O)c2ccccc2)C=C1OC(=O)c1ccccc1	> 100 µM	
O=C(NN1C(=O)C(Cl)C1c1ccc([N+](=O)[O-])cc1)c1ccccc1O (stereo unspecified)	> 100 µM	
CCOC(=O)C1CCn2c(nc3c(=O)n(C)c(=O)n(C)c32)S1 (stereo unspecified)	> 100 µM	
CC1CCC(C#N)(NOC2=NCCN2)CC1 (stereo unspecified)	> 100 µM	> 100
CCN1CCN(c2cc(C)nc(NCc3cc(Nc4ccnc5cc(Cl)ccc45)ccc3F)n2)CC1	> 100 µM	3
CCOC(=O)c1[nH]n(-c2ccccc2)c(=O)c1C=NC(=S)C(N)=S	> 100 µM	
Nc1ccc(S(=O)(=O)c2ccc(N=[N+]([O-])c3ccc(S(=O)(=O)c4ccc(N)cc4)cc3)cc2)cc1	> 100 µM	
O=C(O)c1ccc(/C=N\N(CCO)C2=NCCN2)cc1	> 100 µM	
O=c1[nH]c2cc([N+](=O)[O-])c(N(CCO)CCO)c([N+](=O)[O-])c2[nH]1	> 100 µM	
CC(=O)[CH-]C(=O)c1ccccc1.CC(=O)[CH-]C(=O)c1ccccc1.CC12CC3(C)CC(C)(C1)CC([O-])(C2)C3.CC[O-].[Ti+4]	> 100 µM	30.5
COc1ccc(Cn2c3c(c4c(O)cccc42)C(=O)c2ccccc2-3)cc1	16.8 µM	3.58
Cc1ccc(-c2nc3n(c2/C=N\N=C(N)N)CCS3)cc1	30.9 µM	

SMILES	TGI	GI50 [µM]
COc1cc(C(c2cc(OC)c(OC)c(OC)c2)N2C(=O)CCC2C(=O)O)cc(OC)c1OC (stereo unspecified)	> 100 µM	
COc1cc(/C=N/O)nc(-c2ccccn2)c1	> 100 µM	0.292
c1cc(C2N3CCCN2CC3)ccn1 (stereo unspecified)	> 100 µM	
COc1ccc2c(c1)Cc1c-2[nH]c2cc3c(cc2c1=O)OCO3	> 100 µM	
CN(C)CCC(=O)NCc1c2nc3ccccc3nc2n2ccccc12	> 100 µM	40
NCCCn1c2c(c3ccc([N+](=O)[O-])cc3c1=O)C(=O)c1cc(Cl)ccc1-2	0.373 µM	< 0.0233
COC(=O)Nc1nc2ccc(NS(=O)(=O)c3ccc(F)cc3)cc2[nH]1	> 100 µM	
CC1(C)C(C(=O)OC(C#N)c2cccc(OCC(=O)OCc3ccccc3)c2)C1(C)C (stereo unspecified)	> 100 µM	
C=C(C)C(=O)N1c2ccc(OC)cc2CC1C(=O)OCC (stereo unspecified)	> 100 µM	
O=C(Cc1nc2ccccc2s1)C(=O)Nc1ccc(Cl)cc1Cl	> 100 µM	
CCC(=O)n1c(=O)n(-c2ccc([N+](=O)[O-])cc2)c(=O)n1C(=O)CC	> 100 µM	
O=C(/C=C\c1ccc(OCCCCCC[P+](c2ccccc2)(c2ccccc2)c2ccccc2)cc1)c1ccc2c(c1)OCCO2	3.95 µM	1.79
CCCCc1oc2ccccc2c1C(=O)c1cc(I)c(OCCN(CC)CC)c(I)c1	15 µM and 10.1 µM	3.96
O=C(OCc1c(-c2ccccc2)nn(-c2ccccc2)c1COC(=O)Oc1ccccc1)Oc1ccccc1	> 100 µM	
COC(=O)C(C(=O)C(=O)Nc1ccc(C)cc1C)c1nc2ccc([N+](=O)[O-])cc2[nH]c1=O (stereo unspecified)	> 100 µM	
CCOC(=O)c1ccc2c(=O)n3c(C(=O)OCC)ccc3c(=O)n12	> 100 µM	
C[C@@]1(CBr)C[C@@](C)(/C=C/Cl)[C@@H](Cl)C[C@H]1Cl	28 µM	
O=C1/C(=C/c2ccc(C(F)(F)F)cc2)COc2ccc(O)cc21	25 µM	12.5
CCN1CCN(c2nc(C)cc(N(CCCNc3ccnc4cc(Cl)ccc34)Cc3ccco3)n2)CC1	10.4 µM	2.76
FC(F)(F)c1nc2cc(SSc3cc4nc(C(F)(F)F)[nH]c4cc3Cl)c(Cl)cc2[nH]1	> 100 µM	
CC(C)=CCC[C@@H](C)C1=C(O)C(Nc2ccccc2F)=C(C)C(=O)C1=O	> 100 µM	
CCN1CCC(O)(c2ccc(Cl)c(Cl)c2)C(C(=O)c2ccc(Cl)c(Cl)c2)C1 (stereo unspecified)	27.7 µM	
CCOC(CN(C)C(=O)OCC(Cl)(Cl)Cl)OCC	> 100 µM	
Cc1cc(S(=O)(=O)Nc2nc3ccsc3c(=O)n2Cc2ccccc2)c(S)cc1Cl	78.8 µM	19.5

SMILES	TGI	GI50 [µM]
Cc1sc2c(c1C)C(c1ccc(Cl)cc1)=N[C@@H](CC(=O)Nc1ccc(O)cc1)c1nnc(C)n1-2	> 89.6 µM	1.5
C[N+](C)(N)Cc1csc(-c2ccc(Cl)cc2)n1	> 100 µM	
NC(=O)C12CCC1C1CCCCC12N1CCOCC1 (stereo unspecified)	> 100 µM	
C[C@@H]1CCC2[C@@H](C)[C@H](OC(=O)CCC(=O)NCCNC(=O)Cc3cc(=O)oc4cc(N(C)C)ccc34)O[C@@H]3O[C@]4(C)CC[C@@H]1C23OO4 (stereo partly specified)	> 100 µM	25.6
C=C(C)C1CCC2(CO)C(O)CC3(C)C(CCC4C5(C)CCC(O)C(C)(C)C5CCC43C)C12 (stereo unspecified)	30.7 µM	
CC1(C)OCC(C2OC(=O)C(OCc3ccccc3)=C2OCc2ccccc2)O1 (stereo unspecified)	> 100 µM	
CCC(c1nc2ccccc2c(=O)n1NC(=O)C(C)(C)C)C1(O)CCCCC1 (stereo unspecified)	> 100 µM	
CN1CCN(c2ccc([N+](=O)[O-])c3no[n+]([O-])c23)CC1	4.4 µM and 1.98 µM	0.685
CC1=NN(C(=O)c2ccccc2)C(=O)C1N=Nc1ccccc1C(=O)O (stereo unspecified)	> 100 µM	
COC(=O)c1cccc2c1Oc1ccccc1S2	> 100 µM	
NC(N)=N/N=C(/c1ccccc1)c1ccc(O)cc1O	> 100 µM	
COC(=O)C1(Cc2ccc3c(c2)CCC3)Cc2cc3c(cc2C1=O)CCC3 (stereo unspecified)	> 46.4 µM	
CC1=NN(c2cccc(Cl)c2)C2(C1)SCC(=O)N2c1nc2ccccc2s1 (stereo unspecified)	86.8 µM	
C/C(CC(=O)Nc1ccc(NC(=O)/C(C)=N/NS(=O)(=O)c2ccc(C)cc2)cc1)=N\NS(=O)(=O)c1ccc(C)cc1	> 100 µM	
CC(C)c1ccc(O)c(O)c(=O)c1 (tested in a mixture with another compound)	> 100 µM	
O=C(O)C1C2CCC(C2)C1c1ccccc1 (stereo unspecified)	> 100 µM	
O=c1cc(-c2ccc[nH]2)[nH]c2cc3c(cc12)OCO3	> 100 µM	
CCc1c(-c2coc(CC/C(C)=C/c3ccccc3)n2)oc(OC)c(C)c1=O	> 100 µM	
OC1NC2CC3NC(O)C(O)NC3CC2NC1O (stereo unspecified)	> 100 µM	
O=C1c2c(O)cccc2C(C(=O)CCCC(=O)C2c3cccc(O)c3C(=O)c3c(O)cccc32)c2cccc(O)c21	5.99 µM	
COc1ccc(CC(C#N)c2cc(OC)c(OC)c(OC)c2)cc1 (stereo unspecified)	> 100 µM	
O=C1C(Nc2cccc(O)c2)=C(Sc2ccc(Cl)cc2)C(=O)N1Cc1ccccc1	34.6 µM	18.8
CN(C)Cc1cc(C(=O)/C=C/c2c(F)cccc2Cl)cc(CN(C)C)c1O	28.2 µM	
Cc1cc(NS(=O)(=O)c2ccc(NC(=O)c3cccc4c(NNc5ccc(S(N)(=O)=O)cc5)c5ccccc5nc34)cc2)no1	> 100 µM	
